Test results from publication PMC9911399, “Two distinct binding modes provide the RNA-binding protein RbFox with extraordinary sequence specificity”.
Changes are numbered by the printed parent chain; changes in the protein carry UniProt numbers. Some of the results follow.

B1: CCUCUUU (DNA:RNA)
RNA: GGGAGACCGGAAUUCAGAUUGUCCCCUCUUUUUAAAUCCCGUCGUAGCCACCA
DNA 1: CAATCTGAATTCCGGTCTCCC
DNA 2: TGGTGGCTACGACGGGATT
B2: GCCCAGA (DNA:RNA)
RNA: B1 RNA with C25G, U27C, U29A, U30G, U31A
DNA 1: CAATCTGAATTCCGGTCTCCC
DNA 2: TGGTGGCTACGACGGGATT
B3: CCUCCGG (DNA:RNA)
RNA: B1 RNA with U29C, U30G, U31G
DNA 1: CAATCTGAATTCCGGTCTCCC
DNA 2: TGGTGGCTACGACGGGATT
B4: AAUAUUG (DNA:RNA)
RNA: B1 RNA with C25A, C26A, C28A, U31G
DNA 1: CAATCTGAATTCCGGTCTCCC
DNA 2: TGGTGGCTACGACGGGATT
B5: CCCAUCU (DNA:RNA)
RNA: B1 RNA with U27C, C28A, U30C
DNA 1: CAATCTGAATTCCGGTCTCCC
DNA 2: TGGTGGCTACGACGGGATT
B6: AUUCCUC (DNA:RNA)
RNA: B1 RNA with C25A, C26U, U29C, U31C
DNA 1: CAATCTGAATTCCGGTCTCCC
DNA 2: TGGTGGCTACGACGGGATT
B7: UAACGAA (DNA:RNA)
RNA: B1 RNA with C25U, C26A, U27A, U29G, U30A, U31A
DNA 1: CAATCTGAATTCCGGTCTCCC
DNA 2: TGGTGGCTACGACGGGATT
B8: AGCUCUG (DNA:RNA)
RNA: B1 RNA with C25A, C26G, U27C, C28U, U29C, U31G
DNA 1: CAATCTGAATTCCGGTCTCCC
DNA 2: TGGTGGCTACGACGGGATT
B9: AGCCAUC (DNA:RNA)
RNA: B1 RNA with C25A, C26G, U27C, U29A, U31C
DNA 1: CAATCTGAATTCCGGTCTCCC
DNA 2: TGGTGGCTACGACGGGATT
B10: GUAGAUG (DNA:RNA)
RNA: B1 RNA with C25G, C26U, U27A, C28G, U29A, U31G
DNA 1: CAATCTGAATTCCGGTCTCCC
DNA 2: TGGTGGCTACGACGGGATT
B11: UCCUAAU (DNA:RNA)
RNA: B1 RNA with C25U, U27C, C28U, U29A, U30A
DNA 1: CAATCTGAATTCCGGTCTCCC
DNA 2: TGGTGGCTACGACGGGATT
B12: UGUCUAU (DNA:RNA)
RNA: B1 RNA with C25U, C26G, U30A
DNA 1: CAATCTGAATTCCGGTCTCCC
DNA 2: TGGTGGCTACGACGGGATT
B13: CCAAGUA (DNA:RNA)
RNA: B1 RNA with U27A, C28A, U29G, U31A
DNA 1: CAATCTGAATTCCGGTCTCCC
DNA 2: TGGTGGCTACGACGGGATT
B14: UCGACCA (DNA:RNA)
RNA: B1 RNA with C25U, U27G, C28A, U29C, U30C, U31A
DNA 1: CAATCTGAATTCCGGTCTCCC
DNA 2: TGGTGGCTACGACGGGATT
B15: CCGAUAC (DNA:RNA)
RNA: B1 RNA with U27G, C28A, U30A, U31C
DNA 1: CAATCTGAATTCCGGTCTCCC
DNA 2: TGGTGGCTACGACGGGATT
B16: CAAUUCA (DNA:RNA)
RNA: B1 RNA with C26A, U27A, C28U, U30C, U31A
DNA 1: CAATCTGAATTCCGGTCTCCC
DNA 2: TGGTGGCTACGACGGGATT
B17: GCAAUGA (DNA:RNA)
RNA: B1 RNA with C25G, U27A, C28A, U30G, U31A
DNA 1: CAATCTGAATTCCGGTCTCCC
DNA 2: TGGTGGCTACGACGGGATT
B18: GUCCCGG (DNA:RNA)
RNA: B1 RNA with C25G, C26U, U27C, U29C, U30G, U31G
DNA 1: CAATCTGAATTCCGGTCTCCC
DNA 2: TGGTGGCTACGACGGGATT
B19: GUGUCUU (DNA:RNA)
RNA: B1 RNA with C25G, C26U, U27G, C28U, U29C
DNA 1: CAATCTGAATTCCGGTCTCCC
DNA 2: TGGTGGCTACGACGGGATT
B20: GAGGCCC (DNA:RNA)
RNA: GGGAGACCGGAAUUCAGAUUGUCCGAGGCCCUUAAAUCCCGUCGUAGCCACCA
DNA 1: CAATCTGAATTCCGGTCTCCC
DNA 2: TGGTGGCTACGACGGGATT
B21: GUUCCAC (DNA:RNA)
RNA: B20 RNA with A26U, G27U, G28C, C30A
DNA 1: CAATCTGAATTCCGGTCTCCC
DNA 2: TGGTGGCTACGACGGGATT
B22: CUCUGAC (DNA:RNA)
RNA: B1 RNA with C26U, U27C, C28U, U29G, U30A, U31C
DNA 1: CAATCTGAATTCCGGTCTCCC
DNA 2: TGGTGGCTACGACGGGATT
B23: GCUCGAC (DNA:RNA)
RNA: B1 RNA with C25G, U29G, U30A, U31C
DNA 1: CAATCTGAATTCCGGTCTCCC
DNA 2: TGGTGGCTACGACGGGATT
B24: UCGGACC (DNA:RNA)
RNA: B20 RNA with G25U, A26C, C29A
DNA 1: CAATCTGAATTCCGGTCTCCC
DNA 2: TGGTGGCTACGACGGGATT
B25: ACUUACA (DNA:RNA)
RNA: B1 RNA with C25A, C28U, U29A, U30C, U31A
DNA 1: CAATCTGAATTCCGGTCTCCC
DNA 2: TGGTGGCTACGACGGGATT
B26: CUACCCU (DNA:RNA)
RNA: B1 RNA with C26U, U27A, U29C, U30C
DNA 1: CAATCTGAATTCCGGTCTCCC
DNA 2: TGGTGGCTACGACGGGATT
B27: CGGUUAC (DNA:RNA)
RNA: B1 RNA with C26G, U27G, C28U, U30A, U31C
DNA 1: CAATCTGAATTCCGGTCTCCC
DNA 2: TGGTGGCTACGACGGGATT
B28: GUAUUGC (DNA:RNA)
RNA: B20 RNA with A26U, G27A, G28U, C29U, C30G
DNA 1: CAATCTGAATTCCGGTCTCCC
DNA 2: TGGTGGCTACGACGGGATT
B29: GGCAUAG (DNA:RNA)
RNA: B1 RNA with C25G, C26G, U27C, C28A, U30A, U31G
DNA 1: CAATCTGAATTCCGGTCTCCC
DNA 2: TGGTGGCTACGACGGGATT
B30: GGACGAU (DNA:RNA)
RNA: B1 RNA with C25G, C26G, U27A, U29G, U30A
DNA 1: CAATCTGAATTCCGGTCTCCC
DNA 2: TGGTGGCTACGACGGGATT
B31: CGAGAGG (DNA:RNA)
RNA: B1 RNA with C26G, U27A, C28G, U29A, U30G, U31G
DNA 1: CAATCTGAATTCCGGTCTCCC
DNA 2: TGGTGGCTACGACGGGATT

Target: T1, RBFOX1 RRM RbFoxmut (Fox-RRM*) (Homo sapiens, UniProt Q9NWB1 109-208, R118D;E147R;N151S;E152T)
T1 sequence: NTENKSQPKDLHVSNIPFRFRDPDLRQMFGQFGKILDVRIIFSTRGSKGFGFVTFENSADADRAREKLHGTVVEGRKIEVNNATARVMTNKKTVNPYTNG
Assay: EMSA; HiTS-Eq, 1 nM pool, 10 min; buffer printed only for the single-RNA assays: 10 mM Tris pH 7.5, 150 mM NaCl, 3.4 mM EDTA, 0.001% NP-40, 30 C
Details: tags: His6 N-terminal (pET28a); label: 5' 32P
In short: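 Purified RbFox RRM (wild type or mutant) was equilibrated for 10 min in 50 µL with 1 nM of a 5′-radiolabelled pool of RNA with 7 randomized nucleotides, its flanks annealed to DNA oligonucleotides, across increasing protein concentrations. Free RNA was separated by 8% native PAGE, excised, reverse-transcribed, PCR-barcoded and sequenced on an Illumina HiSeq 2500. Relative association constants came from read-count changes of each variant against the control reaction, normalised to the cognate motif.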

B1 was tested. Which binding signal did it give?
The binding signal was 0.0921 KA relative to UGCAUGU.

With B2 as the binder, how does the binding signal read?
Its binding signal is 0.0922 KA relative to UGCAUGU.

With B3 as the binder, how does the binding signal read?
Its binding signal is 0.0622 KA relative to UGCAUGU.

For B4, which binding signal is on record?
The binding signal was 0.112 KA relative to UGCAUGU.

For B5, which binding signal is on record?
The binding signal was 0.0617 KA relative to UGCAUGU.

B6 was tested. Which binding signal did it give?
The binding signal was 0.0696 KA relative to UGCAUGU.

For B7, which binding signal is on record?
Its binding signal is 0.0679 KA relative to UGCAUGU.

For B8, which binding signal is on record?
Its binding signal is 0.0949 KA relative to UGCAUGU.

How did the binding signal turn out when B9 was run?
The binding signal was 0.0563 KA relative to UGCAUGU.

With B10 as the binder, how does the binding signal read?
Its binding signal is 0.178 KA relative to UGCAUGU.

Which binding signal does the source give for B11 here?
Its binding signal is 0.1 KA relative to UGCAUGU.

B12 was tested. Which binding signal did it give?
Its binding signal is 0.112 KA relative to UGCAUGU.

How did the binding signal turn out when B13 was run?
Its binding signal is 0.115 KA relative to UGCAUGU.

How did the binding signal turn out when B14 was run?
The binding signal was 0.0475 KA relative to UGCAUGU.

For B15, which binding signal is on record?
The binding signal was 0.0977 KA relative to UGCAUGU.

Which binding signal does the source give for B16 here?
Its binding signal is 0.116 KA relative to UGCAUGU.

With B17 as the binder, how does the binding signal read?
The binding signal was 0.0709 KA relative to UGCAUGU.

For B18, which binding signal is on record?
Its binding signal is 0.0859 KA relative to UGCAUGU.

For B19, which binding signal is on record?
Its binding signal is 0.101 KA relative to UGCAUGU.

How did the binding signal turn out when B20 was run?
Its binding signal is 0.0476 KA relative to UGCAUGU.

Which binding signal does the source give for B21 here?
The binding signal was 0.104 KA relative to UGCAUGU.

Which binding signal does the source give for B22 here?
The binding signal was 0.115 KA relative to UGCAUGU.

B23 was tested. Which binding signal did it give?
Its binding signal is 0.0915 KA relative to UGCAUGU.

How did the binding signal turn out when B24 was run?
The binding signal was 0.0555 KA relative to UGCAUGU.

Which binding signal does the source give for B25 here?
The binding signal was 0.123 KA relative to UGCAUGU.

For B26, which binding signal is on record?
The binding signal was 0.0884 KA relative to UGCAUGU.

For B27, which binding signal is on record?
Its binding signal is 0.0846 KA relative to UGCAUGU.

For B28, which binding signal is on record?
The binding signal was 0.194 KA relative to UGCAUGU.

B29 was tested. Which binding signal did it give?
Its binding signal is 0.104 KA relative to UGCAUGU.

How did the binding signal turn out when B30 was run?
Its binding signal is 0.0761 KA relative to UGCAUGU.

With B31 as the binder, how does the binding signal read?
Its binding signal is 0.0724 KA relative to UGCAUGU.
